Out of some 310,000 compounds screened, about 14,000 (4.5%) showed an effect of 50% or more. Effects have a minus sign here. The list shows a part of the results.
These compounds were tested against human ether-à-go-go-related gene (hERG) potassium channel (human, UniProt Q12809) (assay: primary screen, population patch clamp on CHO cells stably expressing hERG).
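Also: peak tail current of the secondary pulse compared with the same well before compound.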

Chain of human ether-à-go-go-related gene (hERG) potassium channel (Q12809 whole entry, looked up): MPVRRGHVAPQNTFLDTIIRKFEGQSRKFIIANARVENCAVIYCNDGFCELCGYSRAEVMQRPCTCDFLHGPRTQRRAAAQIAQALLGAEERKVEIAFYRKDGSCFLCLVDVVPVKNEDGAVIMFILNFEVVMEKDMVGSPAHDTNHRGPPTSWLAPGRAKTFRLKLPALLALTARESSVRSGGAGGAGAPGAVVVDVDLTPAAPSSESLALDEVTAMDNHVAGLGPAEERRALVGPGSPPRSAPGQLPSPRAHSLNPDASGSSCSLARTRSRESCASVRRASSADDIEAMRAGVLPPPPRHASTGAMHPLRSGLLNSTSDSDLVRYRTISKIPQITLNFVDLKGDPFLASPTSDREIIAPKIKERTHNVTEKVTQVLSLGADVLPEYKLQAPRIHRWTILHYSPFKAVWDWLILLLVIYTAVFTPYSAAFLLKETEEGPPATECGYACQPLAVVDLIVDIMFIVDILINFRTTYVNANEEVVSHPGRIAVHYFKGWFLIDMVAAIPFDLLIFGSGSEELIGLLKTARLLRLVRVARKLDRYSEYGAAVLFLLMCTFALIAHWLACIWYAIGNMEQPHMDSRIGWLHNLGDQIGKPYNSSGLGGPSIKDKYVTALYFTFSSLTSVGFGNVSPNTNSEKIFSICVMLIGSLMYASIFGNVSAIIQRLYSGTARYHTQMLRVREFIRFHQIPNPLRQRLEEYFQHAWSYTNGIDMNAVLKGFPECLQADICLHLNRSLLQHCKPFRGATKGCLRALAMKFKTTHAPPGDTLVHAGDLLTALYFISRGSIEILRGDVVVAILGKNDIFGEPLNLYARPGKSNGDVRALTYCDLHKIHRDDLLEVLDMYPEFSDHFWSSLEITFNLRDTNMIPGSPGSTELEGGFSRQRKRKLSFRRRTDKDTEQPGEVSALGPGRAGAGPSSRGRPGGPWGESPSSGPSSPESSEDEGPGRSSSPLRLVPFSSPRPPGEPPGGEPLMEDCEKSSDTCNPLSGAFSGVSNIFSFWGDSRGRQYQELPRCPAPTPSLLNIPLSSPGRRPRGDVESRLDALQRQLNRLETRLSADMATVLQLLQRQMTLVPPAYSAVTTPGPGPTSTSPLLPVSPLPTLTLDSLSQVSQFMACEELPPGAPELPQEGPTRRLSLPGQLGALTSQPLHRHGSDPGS

| Compound | hERG current change (%, negative = inhibition) at 10uM |
| --- | --- |
| CC1CN(C(=O)CSc2nc(N)cc(N)n2)CC(C)O1 (stereo not drawn) | -10.3% |
| CC(=O)c1ccc(-c2ccc(C(=O)N3CCCc4ccccc43)o2)cc1 | 27.2% |
| CNC(=O)NC(=O)COC(=O)CCCOc1ccc(OC)cc1 | 20.5% |
| CC(NC(=O)COC(=O)c1ccc2ccccc2n1)C1CC2CCC1C2 (stereo not drawn) | 13.4% |
| CN1/C(=C\C(=O)c2cccnc2Cl)C(C)(C)c2ccccc21 | -9.26% |
| CC(=O)Nc1cccc(NC(=O)CSc2ncc(C(=O)Nc3ccccc3)c(=O)n2C)c1 | 7.03% |
| CCO[C@@H]1OC(C(=O)O)=C[C@H](c2csc3ccccc23)[C@H]1CCCO | -3.12% |
| CC(=O)NS(=O)(=O)c1ccc(N/C(N)=N/c2nc(C)cc(C)n2)cc1 | 13.3% |
| Nn1c(SCC(=O)Nc2ccccc2Br)nnc1-c1ccco1 | -20.7% |
| NC(=O)CN1C(=O)C2C3C=CC(C3)C2C1=O (stereo not drawn) | 10.4% |
| COc1ccc(C(=O)Nc2cc(=O)n(C)c(=O)n2C)cc1 | 0.872% |
| Cn1nccc1C(=O)c1ccc(Cl)cc1 | -14.8% |
| CCOC(=O)Cn1nc(C)n(-c2ccc(C(C)C)cc2)c1=O | -1.13% |
| O=C(O)c1ccc(S(=O)(=O)N(Cc2ccccc2)C2CCCCC2)cc1 | 4.19% |
| CCS(=O)(=O)N1CCN(C(=O)c2ccccc2[N+](=O)[O-])CC1 | 15.5% |
| O=C(OCCN=C1NS(=O)(=O)c2ccccc21)c1cccs1 | 9.68% |
| COC(=O)CCC(=O)OC1(C)C(=O)C2=COC(c3ccc(OC)cc3)=CC2=C(Br)C1=O (stereo not drawn) | 9.76% |
| Cl.NCCS(=O)(=O)NC1CCCCC1 | 14.5% |
| O=C1c2ccccc2C(=O)c2c1ccc1c(=O)n(C3CCCCC3)[nH]c21 | -1.1% |

| Compound | hERG current change (%, negative = inhibition) at 10uM |
| --- | --- |
| CC1CCN(C(=O)c2ccc(Br)c(S(=O)(=O)N3CCOCC3)c2)CC1 | -3.74% |
| COc1ccccc1/C=C1\SC(=S)N(CCC(=O)N2CCN(C)CC2)C1=O | 13.9% |
| O=C(Nc1cccc(C(F)(F)F)c1)C1=CC=CN2CCS(=O)(=O)N=C12 | -35% |
| C/C(=N/NS(=O)(=O)c1ccc(C)cc1)c1ccc2c(c1)OCO2 | 13% |
| CCCCN(Cc1cc2ccccc2[nH]c1=O)S(C)(=O)=O | -0.365% |
| COc1ccc(N2C(=O)CC(S/C(N)=N/N=C/c3ccnc4ccccc34)C2=O)cc1 (stereo not drawn) | 13.6% |
| Cc1ccc(S(=O)(=O)NC(c2ccccc2)C(C)C(=O)n2nc(C)cc2C)cc1 (stereo not drawn) | 1.62% |
| CCN(C1CCCCC1)S(=O)(=O)c1ccc(C(=O)O)cc1 | 6.74% |
| COc1ccc(CNC(=O)C2(CC3CC(c4ccccc4)=NO3)CCN(C(=O)C3CCCC3)CC2)cc1 (stereo not drawn) | -71.6% |
| O=C(Nc1nc2ccccc2s1)C1CCN(C(=O)c2ccco2)CC1 | -41.9% |
| O=C(Cc1ccc(F)cc1)Nc1cccc(-c2cn3c(n2)SCC3)c1 | -16.6% |
| Cc1cc2nnc(SC(C)C#N)n2c2ccccc12 (stereo not drawn) | -1.57% |
| CC(Oc1ccc2c3c(c(=O)oc2c1)CCC3)C(=O)NCc1cccnc1 (stereo not drawn) | -9.15% |
| Cc1ccsc1/C=N/NC(=O)c1nnn(-c2nonc2N)c1CSc1ccccc1 | 21.5% |
| COc1cc(-c2nnn(CC(=O)N3CCOCC3)n2)cc(OC)c1OC | 3.36% |
| O=C(CCNC(=O)c1ccc([N+](=O)[O-])cc1)Nc1cccc(S(=O)(=O)N2CCCCCC2)c1 | -75.1% |
| COc1ccc(NC(=O)CCNS(=O)(=O)c2cccc3nonc23)cc1Cl | 32.3% |
| COC(=O)CCC(=O)Nc1ccc(C)cc1OC(=O)CCC(=O)OC | 13.2% |
| Cc1ccc(S(=O)(=O)n2nc(OC(=O)c3cccc(F)c3)cc2N)cc1 | 20.4% |

| Compound | hERG current change (%, negative = inhibition) at 10uM |
| --- | --- |
| CCNc1nc(Oc2ccccc2)nc(OC(C)C(=O)OCC)n1 (stereo not drawn) | -7.55% |
| CN(CC(=O)Nc1ccccc1Br)Cc1nc2ccccc2c(=O)[nH]1 | -23.2% |
| CC(C)OC(=O)CC(=O)CSc1nc2c(c(-c3cccs3)c1C#N)CCC2 | -8.89% |
| COC(=O)c1ccc(CN2C(=O)NC(Cc3c[nH]c4ccccc34)C2=O)cc1 (stereo not drawn) | 14.8% |
| N#Cc1c(NC(=O)c2ccccc2)sc2c1CCCCC2 | 7.75% |
| COc1ccc(C2CC(=O)C=C(NC3CCCC3)C2)cc1 (stereo not drawn) | -5.76% |
| Cc1cc(NC(=O)Nc2ccc(Cl)cc2)n(-c2ccccc2)n1 | 1.59% |
| Cc1nnc(SCC(=O)Nc2ccc(F)cc2F)n(N)c1=O | -2.07% |
| CCOC(=O)C1CCCCN1Cc1ccccc1C(F)(F)F (stereo not drawn) | -5.9% |
| COc1cccc(C(=O)N(Cc2ccco2)Cc2cc3cccc(C)c3[nH]c2=O)c1 | -8.22% |
| CNc1nc(-c2ccc3c(c2)CCN3C(=O)c2ccccc2F)c(C)s1 | 23% |
| CC1(C)CC(=O)c2cc(OCC(=O)NCC3CCCO3)ccc2O1 (stereo not drawn) | 13.2% |
| COc1cc2nc(/C=C/c3cc(OC)c(OC)c(OC)c3)sc2cc1SC | 5.92% |
| COc1cc(/C=N/NC(=O)C(=O)NCc2ccco2)cc(Cl)c1O | 1.79% |
| CC(C)CCNC1c2ccccc2C(=O)N1Cc1ccccc1.Cl (stereo not drawn) | -7.9% |
| CC1=CCC2C(=O)N(c3ccc(C(=O)N4CCCCCC4)cc3)C(=O)C2C1 (stereo not drawn) | 4.64% |
| O=c1[nH]cnc2c1c(-c1ccccc1)cn2-c1ccc(Br)cc1 | 5.66% |
| O=C(COC(=O)c1ccc(S(=O)(=O)N2CCOCC2)cc1)NC1CCCCCCC1 | 12.2% |
| COC(=O)C1=C(c2ccc(OC)c(OC)c2)C[C@@H]2CC[C@H]1N2C(=O)NC1Cc2ccccc2C1 | -12% |
